In all, about 45,000 compounds went through this assay and about 65 (0.1%) were called active. The call rests on the fitted dose curve; in most records, active means well fitted activation curve with a large enough effect; inconclusive means small, poorly fitted or top-dose-only effect; inactive means no such curve, though single readings can be large or run the other way. The list shows a part of the results.
target: Galactocerebrosidase (Homo sapiens) (UniProt P54803); test: A Novel Cell-Based Assay to Identify Small Molecules for B -Galactocerebrosidase; settings: 145M-Twi-hGALC-G270D cells (Twitcher mouse brain line with human GALC G270D), HMU-beta-Gal fluorescence, 48 h; series mostly up to 57.5 µM; activation: at the top concentration; further: 0% is about no effect; nearly all actives have a fitted effect of over 65% in size
Method in brief: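 Fluorescence readout: HMU-β-gal cleavage by mutant GALC (0.1 mM final, citrate/phosphate pH 5.2 with 1 mg/mL taurocholate), stopped with carbonate/bicarbonate plus Triton X-100. Cells: murine Twitcher 145M-Twi expressing human G270D GALC; qHTS for activators.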

Sequence of UniProt P54803 (P54803 whole entry, looked up): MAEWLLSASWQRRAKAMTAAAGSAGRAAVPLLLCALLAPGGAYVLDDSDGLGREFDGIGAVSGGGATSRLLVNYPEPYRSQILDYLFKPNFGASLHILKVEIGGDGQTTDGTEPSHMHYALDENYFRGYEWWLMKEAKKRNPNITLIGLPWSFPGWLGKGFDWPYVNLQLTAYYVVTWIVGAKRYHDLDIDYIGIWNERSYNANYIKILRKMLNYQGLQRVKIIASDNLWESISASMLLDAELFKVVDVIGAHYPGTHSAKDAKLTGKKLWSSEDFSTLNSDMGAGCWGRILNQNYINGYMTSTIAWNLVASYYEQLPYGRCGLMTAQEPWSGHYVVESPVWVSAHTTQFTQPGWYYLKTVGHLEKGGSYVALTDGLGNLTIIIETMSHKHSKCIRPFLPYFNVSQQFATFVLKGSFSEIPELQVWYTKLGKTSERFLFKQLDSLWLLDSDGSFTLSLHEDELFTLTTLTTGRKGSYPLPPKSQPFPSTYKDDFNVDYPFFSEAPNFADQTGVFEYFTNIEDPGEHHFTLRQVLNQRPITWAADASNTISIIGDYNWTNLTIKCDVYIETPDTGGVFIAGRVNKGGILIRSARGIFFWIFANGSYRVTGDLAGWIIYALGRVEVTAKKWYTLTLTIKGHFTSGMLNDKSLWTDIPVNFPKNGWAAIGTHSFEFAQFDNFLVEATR

| SMILES | activation |
| --- | --- |
| COc1cccc(C(=O)Nc2ccc3oc(-c4ccc5ccccc5c4)nc3c2)c1 | inactive: -1.92% |
| Cc1cc(C)c(Nc2nn3c(=O)c4cc5c(cc4nc3s2)OCO5)c(C)c1 | inactive: -8.06% |
| CNC(=O)c1cc2c(n(-c3ccc(C)cc3)c1=O)CC(C)(C)CC2=O | inactive: -1.87% |
| O=C(Nc1ccc2nc(SCC(=O)N3CCOCC3)sc2c1)c1ccc(F)cc1 | inactive: -0.312% |
| CCOc1ccc(S(=O)(=O)N(CC(=O)NCCSCc2ccc(C)cc2)c2ccccc2)cc1 | inactive: -2.9% |
| CCn1ccc2cc(S(=O)(=O)N3CCCN(C(=O)Nc4ccccc4C(F)(F)F)CC3)ccc21 | inactive: -20.8% |
| COc1cccc(CNC(=O)CSc2nc(=O)[nH]c3c2CCCC3)c1 | inactive: -12% |
| CCc1ccc(NC(=O)Cn2c(=O)c(-c3ccccc3NC(C)=O)nc3ccccc32)cc1 | inactive: 4.75% |
| OC[C@@H](O)[C@@H](O)[C@H](O)[C@H](O)CO | inactive: -18% |
| Oc1c(C(c2ccc(Cl)cc2Cl)N2CCOCC2)sc2nc(-c3ccco3)nn12 (stereo unspecified) | inactive: -5.68% |
| CC(=O)N[C@@H](Cc1ccc(O)cc1)C(=O)O | inactive: -14% |
| O=C(NCc1ccc(F)cc1)c1ccc(CS(=O)(=O)c2ccc(Cl)cc2)o1 | inactive: -7.12% |
| Cc1ccc2c(=O)cc(C(=O)Nc3nnc(CC(C)C)s3)oc2c1C | inactive: -19.5% |
| O=C(CC1N=C2c3ccccc3N=C(SCC(=O)Nc3cccc(Cl)c3)N2C1=O)NCc1cccs1 (stereo unspecified) | inactive: -15.4% |
| Cc1cccc(Cn2c(=O)n(CCC(=O)NCc3ccc4c(c3)OCO4)c(=O)c3sccc32)c1 | inactive: -13.1% |
| COc1ccc(CCNC(=O)Cn2cc(S(=O)(=O)Cc3ccccc3F)c3ccccc32)cc1OC | inactive: -4.55% |
| CC1CCN(S(=O)(=O)c2ccc(N3CCCCS3(=O)=O)cc2)CC1 | inactive: -11.6% |
| COc1ccc2c(c1)Cc1sc(NC(=O)c3ccccc3Br)nc1-2 | inactive: -23% |
| CCc1ccc(NC(=O)c2ccc3c(c2)N(Cc2ccc(C)cc2)CCS3)cc1 | inactive: -15.7% |
| CCn1c(SCC(=O)Nc2ccc(C)cc2Br)nnc1-c1nonc1NC(C)=O | inactive: -2.13% |
| Cc1ccc(C)n1-c1nnc(N2CCC(C(=O)Nc3ccccc3Br)CC2)s1 | inactive: -0.283% |
| CCCN1CCc2nc(N3CCN(CC)CC3)ncc2C1 | inactive: -3.13% |
| Cc1ccc(OCCn2c(CNc3cccc(C)c3)nc3ccccc32)cc1 | inactive: -1.85% |
| CCc1ccccc1N(C)C(=O)C1CCCN(c2ncnc3onc(-c4ccc(F)cc4)c23)C1 (stereo unspecified) | inactive: -13.4% |

| SMILES | activation |
| --- | --- |
| CC(=O)c1ccc(C(=O)N(CCCN(C)C)c2nc3c(C)c(C)ccc3s2)cc1 | inactive: 7.26% |
| COc1ccc(N2Cc3cccc(C(=O)Nc4ccc(C(C)C)cc4)c3C2=O)cc1 | inactive: 3.39% |
| CCCCOC(=O)c1ccc(NC(=O)c2cc(-c3ccccc3)on2)cc1 | inactive: -12.5% |
| CS(=O)(=O)NCC(c1ccco1)N1CCN(c2ccccc2)CC1 (stereo unspecified) | inactive: 0.383% |
| COc1ccccc1CNc1cc(-c2ccccc2)nc2nncn12 | inactive: -21.3% |
| CCOc1cccc(C(=O)Nc2c(C(=O)c3ccc(OC)cc3)oc3ccccc23)c1 | inactive: -8.54% |
| O=C(CN(c1ccc(Cl)c(C(F)(F)F)c1)S(=O)(=O)c1ccccc1)N1CCc2ccccc2C1 | inactive: -19% |
| Cc1nc2ccn(Cc3cccs3)c(=O)c2cc1C(=O)N1CCN(c2ccc(F)cc2)CC1 | inactive: -6.62% |
| Cc1ccc(NC(=O)c2sc(-n3nc(C)c(CCC(C)C)c3C)nc2C)cc1C | inactive: -9.88% |
| C=CCc1ccc(O)c(OC)c1 | inactive: -10.1% |
| Cc1cccc(CSc2ncc(CO)n2Cc2ccc(F)cc2)c1 | inactive: -26.5% |
| O=C(Nc1ccc2oc(-c3ccccc3F)nc2c1)c1ccccc1Cl | inactive: -6.96% |
| Cc1ccc2c(c1)-c1nc(-c3ccc(Cl)cc3)cc(-c3coc4ccccc4c3=O)c1CO2 | inactive: 6.3% |
| Cc1cc(C)c2c(=O)cc(C(=O)Nc3sc4c(c3C(=O)NCc3ccccc3)CCCC4)oc2c1 | inactive: -22.5% |
| COc1ccc(NC(=O)CSc2ncc3c(n2)-c2cc(Cl)ccc2N(Cc2ccccc2F)S3(=O)=O)cc1 | inactive: -5.52% |
| CCCSc1ncc(Cl)c(C(=O)Nc2ccc(S(=O)(=O)Nc3ncccn3)cc2)n1 | inactive: -8.86% |
| CCOC(=O)c1c(NC(=O)CSc2cn(CCNC(=O)c3ccccc3F)c3ccccc23)sc2c1CCC2 | inactive: 9.65% |
| COC(=O)c1cc(S(=O)(=O)NCC2CCN(Cc3ccc(F)cc3)CC2)cn1C | inactive: -3.25% |
| O=C(Nc1ccc2nc(SCC(=O)N3CCCc4ccccc43)sc2c1)c1cccc(F)c1 | inactive: -24.4% |
| Fc1ccc(-n2ncc3c(NCCCN4CCOCC4)ncnc32)cc1 | inactive: -10.6% |
| CCOCCc1nn2c(=O)cc(COC(=O)CNC(=O)c3ccc(C(C)(C)C)cc3)nc2s1 | inactive: -5.34% |
| Cc1ccc(Cl)cc1N1CCN(S(=O)(=O)c2ccc3[nH]c4c(c3c2)CCCCC4)CC1 | inactive: -38.3% |
| COc1cc(NC(=O)CCc2c(C)nn(-c3ccc4nncn4n3)c2C)cc(OC)c1OC | inactive: -5.65% |
| COc1cccc(CNC(=O)c2ccc(CSc3nc4ccncc4n3Cc3cccc(C)c3)cc2)c1 | inactive: -0.643% |

| SMILES | activation |
| --- | --- |
| Cc1ccc2c(c1)N(CCC(=O)NCc1ccc(F)cc1)C(=O)CO2 | inactive: -16% |
| COc1ccccc1CNS(=O)(=O)c1cc(C(=O)Nc2cccc(C(F)(F)F)c2)ccc1F | inactive: -10.6% |
| CC(C)COC(=O)/C(C#N)=C\c1ccc(-c2ccccc2Cl)o1 | inactive: -17.3% |
| Cc1c(CC(=O)NCCc2ccccc2F)c(=O)oc2c(C)c3occ(C(C)(C)C)c3cc12 | inactive: -10.7% |
| COc1ccc(NC(=O)CSc2cn(CC(=O)N3CCOCC3)c3ccccc23)cc1OC | inactive: -16.6% |
| COc1cccc(N2CCN(C(=O)c3ccc4c(=O)n(CCc5ccccc5)c(=O)[nH]c4c3)CC2)c1 | inactive: -6.54% |
| O=C(CSc1ncc(S(=O)(=O)c2ccc(Br)cc2)c(=O)[nH]1)NCc1ccc(Cl)cc1 | inactive: -7.44% |
| Cc1ccc(C)c(NC(=O)CCN2C(=O)c3ccccc3Sc3ncccc32)c1 | inactive: -3.26% |
| CCOc1ccc(-c2nc(CSCC(=O)N3CCN(c4cccc(C(F)(F)F)c4)CC3)c(C)o2)cc1 | inactive: -43.6% |
| O=C(Nc1ccccc1)C(Cc1ccccc1)N1Cc2ccccc2C1=O (stereo unspecified) | inactive: -6.15% |
| CCc1ccc(S(=O)(=O)c2nnn3c2nc(N2CCC(C)CC2)c2cc(Cl)ccc23)cc1 | inactive: -1.07% |
| COc1ccc(-c2cc(C(=O)NCc3cc(OC)c(OC)c(OC)c3)[nH]n2)cc1 | inactive: -26.6% |
| Cc1cccc(OCC(=O)Nc2c(C)ccc3nsnc23)c1C | inactive: -11.9% |
| Cc1nc(N2C(=O)c3oc4ccccc4c(=O)c3C2c2ccccc2F)sc1C (stereo unspecified) | inactive: -5.77% |
| COc1cccc(N2CCN(S(=O)(=O)c3cc(Br)cc4c3N(C(=O)C3CC3)CC4)CC2)c1 | inactive: -8.7% |
| COc1ccc(C2=NS(=O)(=O)N(C)C(C(=O)Nc3cc(C)ccc3O)=C2)cc1OC | inactive: -7.64% |
| Cc1ccc(C)c(CSc2nc3ncccc3[nH]2)c1 | inactive: -4.16% |
| Cc1cccc(-c2noc(CN(C(=O)COc3ccc(C(C)C)cc3)C(C)C)n2)c1 | inactive: -39.4% |
| CCOC(=O)c1c(C)n(-c2ccccc2)c2ccc(OC(=O)c3ccccc3)cc12 | inactive: -26.9% |
| Cc1cccc(N2C(=O)CSC23C(=O)N(Cc2cccc(F)c2)c2ccccc23)c1 (stereo unspecified) | inactive: -39.8% |
| CN1CCN(C(CNC(=O)C(=O)Nc2ccccc2)c2ccc3c(c2)OCO3)CC1 (stereo unspecified) | inactive: -9.81% |
| COc1cccc(NC(=O)NCc2ccc3c(c2)CCN3C(=O)c2ccccc2)c1 | inactive: -3.4% |
| Cc1cccc(C(=O)Nc2sc3c(c2C(=O)NCc2ccco2)CCCC3)c1 | inactive: -10.6% |
| Cc1ccc2[nH]c(=O)c3cc(C(=O)N4CCN(c5ccccc5)CC4)sc3c2c1 | inactive: 2.49% |

| SMILES | activation |
| --- | --- |
| CCN(CC)S(=O)(=O)c1ccc2c(c1)N(CC(=O)NCCCN1CCN(c3ccccc3F)CC1)C(=O)CO2 | inactive: -5.42% |
| COC(=O)c1sccc1S(=O)(=O)N1CCN(c2ccccc2)CC1 | inactive: -8.07% |
| COc1ccccc1C1C=C(c2ccc(F)cc2)Nc2nc(-c3ccc(Cl)cc3)nn21 (stereo unspecified) | inactive: -8.9% |
| CCCc1nn2c(=O)cc(COC(=O)c3cccc(NC(=O)COc4ccc(F)cc4)c3)nc2s1 | inactive: -16% |
| Clc1cccc(N2CCN(c3ncnc4c3nc3n4CCCCC3)CC2)c1 | inactive: -9.05% |
| CCOC(=O)c1scc(-c2ccccc2)c1S(=O)(=O)Nc1ccccc1F | inactive: -28.4% |
| CCc1ccc(NC(=O)c2cc(C(C)=O)n3ccccc23)cc1 | inactive: -15% |
| CC(C)c1ccc(C2N3CC4(C)CN2CC(c2ccccc2)(C3)C4=O)cc1 (stereo unspecified) | inactive: -21.6% |
| Cc1ccccc1NC(=O)c1ccc(F)c(S(=O)(=O)N(C)Cc2ccccc2)c1 | inactive: -2.24% |
| Cc1cc(C)c(Cn2c3ccccc3c3cnn(CC(=O)NC4CCC(C)CC4)c(=O)c32)c(C)c1 (stereo unspecified) | inactive: 21.8% |
| O=C(O)c1cc(NC2(c3ccccc3)C(=O)c3ccccc3C2=O)ccc1Cl | inactive: -24.2% |
| Cc1nc(-c2ccc(Cl)cc2)sc1CCNC(=O)C(=O)Nc1ccc(F)cc1F | inactive: -18.5% |
| CCCCN1C(=O)c2[nH]nc(-c3ccccc3O)c2C1c1cccc(OCc2ccccc2)c1 (stereo unspecified) | inactive: -9.56% |
| O=C(Cn1c(=O)oc2cc(S(=O)(=O)N3CCCCC3)ccc21)Nc1cccc(Cl)c1 | inactive: -16.6% |
| Cc1ccccc1-n1c(SCC(=O)Nc2ccc(Cl)cc2F)nnc1-c1cc2occc2n1C | inactive: -19.5% |
| Cc1cccc(NC(=O)CCCn2c(C)c3cnn(-c4ccccc4)c(=O)c3c2C)c1C | inactive: -16.2% |
| Cc1oc2c(c(C)cc3oc(=O)c(CC(=O)NCCc4ccccc4F)c(C)c32)c1C | inactive: -2.89% |
| CCOC(=O)C1CCN(c2ncnc3c2c(-c2ccccc2)cn3-c2cccc(C)c2)CC1 | inactive: -7.57% |
| CCc1ccc(NC(=O)CN2CCN(Cc3ccccc3)S2(=O)=O)cc1 | inactive: -4.04% |
| Cc1ccc(Cn2c(C(=O)O)c(CNCc3ccccc3Cl)c3ccc(C)cc32)cc1 | inactive: -17.2% |
| O=C(Nc1ccc2oc(-c3cccnc3)nc2c1)c1cccc(Br)c1 | inactive: -13.5% |
| COc1cccc(NC(=O)CSc2nc3c(oc4ccccc43)c(=O)n2Cc2ccco2)c1 | inactive: -17.4% |
| Cc1ccc(N(CC(=O)NCCc2ccc(Cl)cc2)S(=O)(=O)N(C)C)cc1 | inactive: 4.72% |
| O=C(Cn1ccn(-c2ccc(F)c(F)c2)c(=O)c1=O)Nc1ccccc1F | inactive: -15.8% |

Source: PubChem BioAssay AID1159614 (National Center for Advancing Translational Sciences (NCATS), 2016)
